{"source": "PubChem BioAssay AID1347073", "about": "(National Center for Advancing Translational Sciences (NCATS), 2019)", "note": "Among all 45,000 compounds or so, about 200 (0.44%) were called active. Another 7% or so got no clear call; they are omitted. Calls follow the shape of the dose curve; as a rule, active = well fitted activation curve with a large enough effect; inconclusive = small, poorly fitted or top-dose-only effect; inactive = no such curve, though single readings can be large or run the other way. The list shows a part of the results."}
{"assay": "qHTS of TDP-43 Inhibitors: NCGC Sytravon Library Screen; also: 0% is about no effect; nearly all actives have a fitted effect of over 55% in size", "details": "yeast TDP-43 toxicity rescue, BacTiter-Glo growth, 24 h; series mostly up to 46.1 µM; growth rescue (activation): at the top concentration", "summary_of_the_method": "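TDP-43-expressing yeast, pregrown in raffinose, seeded at OD600 0.02 in galactose medium with compound for 24 hr at 30 deg C. Growth read by BacTiter-Glo luminescence, so rescue of toxicity appears as activation.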"}
{"molecule": "O=C(O)c1cc([N+](=O)[O-])c(N2CCCC2)c([N+](=O)[O-])c1", "growth rescue (activation)": "inactive: 18.9%"}
{"molecule": "CSCC[C@H](NC(=O)c1ccc(OCC2CCCO2)cc1)c1nc2ccccc2[nH]1", "note": "(some centres undefined)", "growth rescue (activation)": "inactive: 15.1%"}
{"molecule": "CCc1c(C)sc2nc3c(C(=O)N4CCOCC4)cc(C(=O)c4cc(F)ccc4O)cn3c(=O)c12", "growth rescue (activation)": "inactive: 10.8%"}
{"molecule": "O=C1OC(c2ccc3c(c2)OCO3)=N/C1=C\\c1ccc(C(=O)O)cc1", "growth rescue (activation)": "inactive: -3.7%"}
{"molecule": "Cc1ccc(NC(=O)C(=O)Nc2ccccn2)cc1", "growth rescue (activation)": "inactive: -12.9%"}
{"molecule": "CN(C)CCNc1nc2sc3c(c2c(=O)n1Cc1ccccc1)CCCCC3", "growth rescue (activation)": "inactive: 5.36%"}
{"molecule": "Cc1nc(Oc2ccc(S(=O)(=O)N3CCOCC3)cc2Cl)c2c3c(sc2n1)CCCC3", "growth rescue (activation)": "inactive: 12.7%"}
{"molecule": "CC(C)(CN1CCc2ccccc2C1)NS(=O)(=O)c1ccccc1", "growth rescue (activation)": "inactive: 24.7%"}
{"molecule": "COC(=O)c1[nH]cnc1C(=O)c1ccccc1", "growth rescue (activation)": "inactive: -1.85%"}
{"molecule": "O=C(COC(=O)c1ccccc1NC(=O)c1ccco1)Nc1ccc2c(c1)OCO2", "growth rescue (activation)": "inactive: 18%"}
{"molecule": "COc1ccc(C(=O)NCC(=O)OCC(=O)N2CCN(S(=O)(=O)c3ccccc3)CC2)cc1", "growth rescue (activation)": "inactive: -14.8%"}
{"molecule": "CC1(NC(=O)Nc2cccc3ccccc23)CCS(=O)(=O)C1", "note": "(centres undefined)", "growth rescue (activation)": "inactive: -4.72%"}
{"molecule": "O=C1c2ccccc2C(=O)N1CN(C(=O)COc1ccc(Cl)cc1Cl)c1cccc(F)c1", "growth rescue (activation)": "inactive: 2.86%"}
{"molecule": "CC1CCN(C(=O)CCN2C(=O)/C(=C/c3cccs3)SC2=S)CC1", "growth rescue (activation)": "inactive: -14.2%"}
{"molecule": "COc1cccc(NC(=O)NC2CCCc3ccccc32)c1", "note": "(centres undefined)", "growth rescue (activation)": "inactive: 7.99%"}
{"molecule": "CCCCc1c(C)nc2ccc(C)cc2c1SCCC(=O)O", "growth rescue (activation)": "inactive: 2.09%"}
{"molecule": "CN(C)c1ccc(/C=C/C(=O)c2c(O)c3ccccc3oc2=O)cc1", "growth rescue (activation)": "inactive: -49.4%"}
{"molecule": "COc1ccccc1NC(=O)C1CC(O)CN1C(=O)Oc1ccccc1", "note": "(centres undefined)", "growth rescue (activation)": "inactive: 8.22%"}
{"molecule": "CCOC(=O)Cc1csc(NC(=S)NC(=O)CC(C)C)n1", "growth rescue (activation)": "inactive: 32.2%"}
{"molecule": "COc1ccc(CCNC(=O)Cn2nc(C(=O)O)c3ccccc3c2=O)cc1OC", "growth rescue (activation)": "inactive: -0.753%"}
{"molecule": "O=C(CCl)Nc1ncc(S(=O)(=O)c2ccc([N+](=O)[O-])cc2)s1", "growth rescue (activation)": "inactive: -4.77%"}
{"molecule": "CC(Sc1nncs1)C(=O)Nc1ccc(Cl)cn1", "note": "(centres undefined)", "growth rescue (activation)": "inactive: 7.92%"}
{"molecule": "CC(C)NS(=O)(=O)c1ccc(OCC(=O)N2CCc3ccccc3C2)cc1", "growth rescue (activation)": "inactive: -1.82%"}
{"molecule": "CC(=O)c1ccc(OCCn2cnc3ccccc32)cc1", "growth rescue (activation)": "inactive: 11.4%"}
{"molecule": "COc1cccc(-n2c(-c3ccc4[nH]c(C)c(C)c4c3)n[nH]c2=S)c1", "growth rescue (activation)": "inactive: 9.75%"}
{"molecule": "COc1ccc(N(CC(=O)N2CCN(c3ccc(Cl)cc3)CC2)S(=O)(=O)c2c(C)n[nH]c2C)cc1", "growth rescue (activation)": "inactive: 19.9%"}
{"molecule": "CCc1ccccc1NCc1cc(=O)oc2cc(C)ccc12", "growth rescue (activation)": "inactive: 8.69%"}
{"molecule": "COc1cccc(-n2c(SCC(N)=O)nc3c([nH]c4ccccc43)c2=O)c1", "growth rescue (activation)": "inactive: 14.1%"}
{"molecule": "O=C(Cc1ccc(Cl)cc1Cl)NCc1cccnc1", "growth rescue (activation)": "inactive: 14.3%"}
